Data published in PubChem BioAssay AID938 (National Center for Advancing Translational Sciences (NCATS), 2007).
Out of some 73,000 compounds screened, about 1,800 (2.5%) were called active. This list was built around the results that the source calls inconclusive (neither active nor inactive); the mix of calls is not that of the screen. The call rests on the fitted dose curve; in most records, active means well fitted activation curve with a large enough effect; inconclusive means small, poorly fitted or top-dose-only effect; inactive means no such curve, though single readings can be large or run the other way. No potency is given beside an inconclusive call; the fits are too rough.

Experiment: qHTS Assay for Agonists of the Thyroid Stimulating Hormone Receptor: Activators of Intracellular cAMP Concentrations in Parental HEK 293; further: nearly all actives have a fitted effect of over 55% in size; on activation: % of control where 0% means no effect
Conditions: parental HEK293 CNG cAMP sensor, membrane potential fluorescence; activation: at 57.1 µM (top of the series) unless noted
In short: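 Parental HEK 293 cells stably expressing a cAMP-gated CNG channel were loaded with membrane potential dye containing 100 uM RO 20-1724 for 60 min. Compound added for 30 min; depolarization read as fluorescence intensity at 590 nm.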
Potency means the concentration at half of the fitted maximal effect; tags describe the fitted curve by direction and shape.

Compound | Potency | activation
CC(C)C[C@@H](CC(=O)N[C@@H](CCC(=O)O)CC(=O)O)NC(=O)[C@@H]1CNCC[C@H]1NC(=O)C[C@@H](NC(=O)C[C@H](Cc1c[nH]c2ccccc12)NC(=O)[C@@H]1CNCC[C@H]1N)C(C)C | inactive | –
COc1ccc(-c2noc(CCC(=O)NCCN(C)Cc3ccccc3)n2)cc1 | inconclusive [activator, single point] | –
CCc1c(C)sc(NC(=O)c2ccc(Br)o2)c1C(=O)OC | inconclusive [activator, partial curve] | –
CC1C(C#N)=C(N)OC2=C1C(=O)CC(C)(C)C2 (centres undefined) | inactive | –
O=C(NCc1ccco1)C1CCN(C(=O)c2cc3sccc3n2Cc2ccc(Cl)cc2)CC1 | active: 12.6 µM | –
COc1ccc(-c2nc3cnc(N4CCOCC4)nc3n(CCc3ccccc3)c2=O)cc1 | inactive | –
COc1cccc(-c2nccc(NCc3cccc(C)c3)n2)c1 | inconclusive [activator, partial curve] | –
c1ccc(C2=Nn3c(nnc3-c3cc(-c4ccccc4)n[nH]3)SC2)cc1 | active: 25.1 µM | –
Fc1ccccc1C(c1nnnn1Cc1ccc2c(c1)OCO2)N1CCN(Cc2ccco2)CC1 (centres undefined) | inconclusive [activator, partial curve] | –
Cc1nc(NC2CCCCC2)c2nc(-c3ccccc3)n(CCN3CCCC3)c2n1 | inconclusive [activator, full curve] | –
Cc1nc2cnc(Oc3cccc(Cl)c3)nc2n(Cc2ccc(F)cc2)c1=O | active: 3.98 µM | –
COCCOC(=O)c1[nH]c2c(c1C)C(=O)CC(c1ccc(F)cc1)C2 (centres undefined) | inactive | –
Cc1cc2cc(CN(Cc3ccc4c(c3)OCO4)Cc3nnnn3C3CCCC3)c(=O)[nH]c2cc1C | inconclusive [activator, partial curve] | –
COc1ccccc1NC(=O)c1oc2ccccc2c1NC(=O)c1ccco1 | inconclusive [activator, partial curve, poor fit] | –
Cc1ccc(Cl)cc1N1CCN(S(=O)(=O)c2cccc(S(=O)(=O)N3CCCC3)c2)CC1 | inconclusive [activator, single point] | –
Cc1nn(C)c(C)c1N=Cc1c(O)ccc2ccccc12 | inactive | –
Oc1cc(O)c2c(c1)O[C@H](c1ccc(O)c(O)c1)[C@@H](O)[C@@H]2c1c(O)cc(O)c2c1O[C@@H](c1ccc(O)c(O)c1)[C@H](O)C2 | – | inactive: 13.4% [at 11.4 µM]
CCCNC(=O)OC[C@H]1O[C@@H](CCO/N=C2/C[C@@H](O)[C@@H](O)[C@@H]3[C@@H]4C(=O)N(CC)C(=O)[C@H]4CC[C@@H]23)C=C[C@@H]1Oc1ccc(OC)cc1 | – | inactive: -2.94% [at 11.4 µM]
COc1cccc(NC(=O)COC(=O)c2ccco2)c1 | inactive | –
CC1(C)O[C@H]2C[C@@H]3[C@H]4CCC5=CC(=O)CC[C@@]5(C)[C@]4(F)[C@@H](O)C[C@@]3(C)[C@@]2(C(=O)CCl)O1 | inactive | –
O=C1COc2ccc(C(=O)NCc3ccc4c(c3)OCO4)cc2N1 | inconclusive [activator, single point] | –
Cc1cc(C)n2nc(SCc3nc4ccccc4[nH]3)nc2n1 | inactive | –
CCNc1ncc2nc(-c3ccc(OC)cc3)c(=O)n(Cc3ccc(F)cc3)c2n1 | inconclusive [activator, partial curve, poor fit] | –

Compound | Potency | activation
Oc1cccc(-c2nc3ccccc3s2)c1 | inactive | –
CC1(C)Cc2ccccc2-c2nnc(SCc3ccc(C#N)cc3)n21 | active: 25.1 µM | –
COc1ccc(C(=O)COC(=O)CCn2nnc(-c3cccs3)n2)cc1 | inconclusive [activator, single point] | –
CCCn1c(=O)c2[nH]c(C3CCCC3)nc2n(CCC)c1=O | inconclusive [activator, single point] | –
CCOc1ccc(NC(=O)CCC(=O)n2nc(C)cc2C)cc1 | inconclusive [activator, single point] | –
COc1ccc(CCNC(=O)CCN2C(=O)COc3ccccc32)cc1OC | inconclusive [activator, single point] | –
COc1ccc(C(=O)c2ccc(N(C)C)cc2)c(OC)c1 | inconclusive [activator, single point] | –
O=C(CCNNC(=O)c1ccncc1)NCc1ccccc1 | inconclusive [activator, single point] | –
COc1ccc(CCNc2oc(COc3ccc(Br)cc3)nc2C#N)cc1OC | inconclusive [activator, single point] | –
COc1ccc(NC(=O)CN2c3cccc4cccc(c34)S2(=O)=O)cc1 | inactive | –
O=C(Nc1nc2c(s1)CCCC2)c1ccc2ncsc2c1 | inconclusive [activator, single point] | –
N[C@@H](Cn1ccc(=O)n(Cc2ccccc2C(=O)O)c1=O)C(=O)O | inactive | –
Cc1nc2ccc(Br)cn2c1NC(C)(C)C | inactive | –
COc1ccc(C2c3c(oc4ccccc4c3=O)C(=O)N2c2ccc(C)cn2)cc1OC (centres undefined) | inactive | –
Cc1c(C(=O)Nc2ccc3c(c2)OCCO3)sc2nc(-c3ccccc3)cn12 | inconclusive [activator, partial curve] | –
Cc1cccc(CNc2ncnc3ccc(-c4ccc5c(c4)OCO5)cc23)c1 | inconclusive [activator, full curve] | –
COc1nc(N(c2ccccc2)c2ccccc2)nc(-n2ccnc2)n1 | inconclusive [activator, partial curve] | –
[O-][N+](CCO)(CCO)c1ncnc2nc[nH]c12 | – | inactive: 29.2% [at 11.4 µM]
Nc1nc(SCCc2ccccc2)c2[nH]cnc2n1 | – | inactive: -7.28% [at 11.4 µM]
OCCNCc1ccc(OC2CCCC2)cc1 | inconclusive [activator, single point] | –
Cc1c(-c2ccc(O)cc2)nn(-c2ccc(O)cc2)c1-c1ccc(OCCN2CCCCC2)cc1 | inactive | –
O=CN1CCN(C[C@H](O)CN2CCCCC2)CC1 | – | inactive: -3.88% [at 11.4 µM]
Cn1c(=O)c2c(nc(N3CCc4ccccc4C3)n2Cc2ccc(Br)cc2)n(C)c1=O | inconclusive [activator, partial curve] | –

Compound | Potency | activation
CCOc1ccc2[nH]c(=O)c(CN(Cc3nnnn3Cc3ccco3)C3CCCCC3)cc2c1 | inconclusive [activator, single point] | –
COCC(C)n1c(SCC(=O)N2CCCCC2)nc2ccccc2c1=O (centres undefined) | inconclusive [activator, partial curve] | –
CC1CCCCN1c1nnc(NC(=O)Cn2c(=O)oc3ccccc32)s1 (centres undefined) | inconclusive [activator, single point] | –
CC(C)Oc1nc(-c2ccccc2O)nc2ccccc12 | inconclusive [activator, partial curve] | –
CC(C)OCCCNS(=O)(=O)c1ccc2c(c1)OCCO2 | inconclusive [activator, single point] | –
O=C(Nc1sc2c(c1C(=O)NCc1ccco1)CCCC2)c1ccc2c(c1)OCO2 | inconclusive [activator, single point] | –
O=C(C1CCC(CNS(=O)(=O)c2cccc3cccnc23)CC1)N1CCCC1 (centres undefined) | active: 25.1 µM | –
CC(=O)c1cc(-c2nc3ccccc3n2C)n(C)c1 | inactive | –
CCOC(=O)Cc1csc(SCC(=O)Nc2sc3c(c2C(N)=O)CCC3)n1 | inconclusive [activator, single point] | –
COC(=O)c1cc2ccsc2n1CC(=O)Nc1cc(C)cc(C)c1 | inconclusive [activator, partial curve] | –
CCC/C=C(\CCC)C(NS(=O)(=O)c1cccs1)c1ccc(C(=O)OC)cc1 (centres undefined) | inconclusive [activator, partial curve] | –
CN(C)CC(CN(C)C)c1ccccn1 | – | inactive: 1.59% [at 11.4 µM]
O=S(=O)(NCCCCCNS(=O)(=O)c1ccccc1)c1ccccc1 | inactive | –
C1=C(C(c2nnnn2C2CCCCC2)N2CCCCC2)COc2ccccc21 (centres undefined) | inconclusive [activator, partial curve] | –
COc1ccccc1CNc1ncncc1-c1ccccc1C(F)(F)F | inconclusive [activator, partial curve] | –
CC(C)N(C(=O)CSc1nnc(-c2cc3ccccc3cc2O)n1Cc1ccco1)C(C)C | inconclusive [activator, single point] | –
O=C(Nc1nc2ccccc2n1CCN1CCOCC1)c1cn(-c2ccccc2)nc1-c1ccccc1 | – | inconclusive: 33.7% [activator]
COc1ccc(-c2nc(C#N)c(NCc3ccccc3Cl)o2)cc1OC | inactive | –
Cc1nn2c(-c3ccccc3)nnc2c2ccccc12 | inconclusive [activator, single point] | –
COC(=O)c1sc(=S)n(-c2cc(F)ccc2F)c1N | inconclusive [activator, single point] | –
COc1ccc(N2C(=O)C3CCCN3C2c2ccc(Cl)cc2)cc1 (centres undefined) | inconclusive [activator, partial curve] | –
COC(=O)c1sccc1NC(=O)c1cc2c(s1)CCCC2 | inconclusive [activator, partial curve] | –
CCC(Sc1nc(N)c(NC(=O)c2ccc(OC)c(OC)c2)c(=O)[nH]1)C(=O)OC (centres undefined) | inconclusive [activator, partial curve] | –
